# Data from a collection of fitness landscapes (doi:10.1016/j.celrep.2020.107928).
# The full ranking holds about 81,000 sequences; the median of “one-hybrid fitness for binding NBS DNA” is about -0.1, and the highest 2% start at about 0.36. The list shows a part of the results.
# B1: Caulobacter ParB omega fusion; a variant is named by its letters at X, in order, B8GW30 (parent)
# chain: MESVVVGEPGMSEGRRGLGRGLSALLGEVDAAPAQAPGEQLGGSREAPIEILQRNPDQPRRTFREEDLEDLSNSIREKGVLQPILVRPSPDTAGEYQIVAGERAWRAAQRAGLKTVPIMVRELDDLAVLEIGIIENVQRADLNVLEEALSYKVLMEKFERTQENIAQTIGKSXSHVANXMRLLXLPDEVQSYLVSGELTAXHARAIAAAADPVALAKQIIEGGLSVRETEALARKAPNLSAGKSKGGRPPRVKDTDTQALESDLSSVLGLDVSIDHRGSTGTLTITYATLEQLDDLCNRLTRGI
# Variants of: B1
# Experiment: one-hybrid fitness for binding NBS DNA (the Noc-binding site; scaled: cognate 1, non-cognate 0); higher = stronger binding
# Conditions: with NBS DNA site
# Method in brief: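 Values were rescaled so that cognate is 1 and non-cognate is 0. Each is a fitness, the log change in a variant's read ratio to wild type from Illumina reads of plasmids before and after selection, with three replicate libraries pooled and variants under 10 reads dropped. Selection of the Caulobacter ParB libraries, four specificity codons randomised, used E. coli USO with a HIS3 reporter, site 19 bp from the promoter, on M9-minus-histidine with 0.1 mM IPTG and 5 mM 3-AT for 48 hours at 37°C.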
row,Variant,one-hybrid fitness for binding NBS DNA
1,IQTT,≤ 0.2
2,APAW,≤ 0.2
3,KLKC,≤ 0.2
4,KSLG,≤ 0.2
5,VTNS,≤ 0.2
6,PCSS,≤ 0.2
7,RVMN,≤ 0.2
8,EISW,≤ 0.2
9,QYDG,≤ 0.2
10,EGYA,≤ 0.2
11,HGYS,≤ 0.2
12,DWSA,≤ 0.2
13,YAKW,≤ 0.2
14,HQQD,≤ 0.2
15,WRNR,≤ 0.2
16,RKMH,0.214
17,RCED,≤ 0.2
18,WNYG,≤ 0.2
19,GEKR,≤ 0.2
20,SAQC,≤ 0.2
21,ARKH,≤ 0.2
22,HKTK,≤ 0.2
23,PMIT,≤ 0.2
24,HCAA,≤ 0.2
25,HLNS,≤ 0.2

row,Variant,one-hybrid fitness for binding NBS DNA
1,MTGC,≤ 0.2
2,AHCS,≤ 0.2
3,ADLM,≤ 0.2
4,CQPL,≤ 0.2
5,REGG,≤ 0.2
6,KSQV,≤ 0.2
7,RGGY,≤ 0.2
8,FFIS,≤ 0.2
9,PTLF,≤ 0.2
10,SEYI,≤ 0.2
11,TMTW,≤ 0.2
12,SVHF,≤ 0.2
13,GTKN,≤ 0.2
14,RKLQ,≤ 0.2
15,CFAG,≤ 0.2
16,MINP,≤ 0.2
17,ACPF,≤ 0.2
18,VVRS,≤ 0.2
19,GCNS,≤ 0.2
20,LFST,≤ 0.2
21,DMVG,≤ 0.2
22,NYEF,≤ 0.2
23,CLVL,≤ 0.2
24,VMWG,≤ 0.2
25,LAMC,≤ 0.2

row,Variant,one-hybrid fitness for binding NBS DNA
1,QQDR,0.388
2,CVER,≤ 0.2
3,ETSN,≤ 0.2
4,TYKL,≤ 0.2
5,SPSL,≤ 0.2
6,RWRG,≤ 0.2
7,PGFC,≤ 0.2
8,NTYF,≤ 0.2
9,GQLC,≤ 0.2
10,IDRR,0.22
11,TVAR,≤ 0.2
12,KELS,≤ 0.2
13,TEHH,≤ 0.2
14,FAEV,≤ 0.2
15,VNFY,≤ 0.2
16,KECS,≤ 0.2
17,TIST,≤ 0.2
18,VHSC,≤ 0.2
19,SVAE,≤ 0.2
20,PYAP,≤ 0.2
21,PLEA,≤ 0.2
22,MPSM,≤ 0.2
23,LVEH,≤ 0.2
24,STIP,≤ 0.2
25,DFTC,≤ 0.2

row,Variant,one-hybrid fitness for binding NBS DNA
1,SNTQ,≤ 0.2
2,RRLP,≤ 0.2
3,RHHK,≤ 0.2
4,EQLS,≤ 0.2
5,AQPF,≤ 0.2
6,HKQT,≤ 0.2
7,QSEM,≤ 0.2
8,LLLT,≤ 0.2
9,ADGF,≤ 0.2
10,DPCY,≤ 0.2
11,WWNG,≤ 0.2
12,RQGG,≤ 0.2
13,MSFG,≤ 0.2
14,GLDR,≤ 0.2
15,WALL,≤ 0.2
16,GDPC,≤ 0.2
17,QRIQ,≤ 0.2
18,CWKS,≤ 0.2
19,CDFS,≤ 0.2
20,GQSS,≤ 0.2
21,SKTL,≤ 0.2
22,HWSS,≤ 0.2
